The full ranking holds about 1,800 sequences; the median of “median log2 fold change of GCK-ALFA target abundance (FLAG IP / Myc IP barcode read proportion)” is about 0.14, and the lowest 2% start at about -0.84. The list shows a part of the results.
T1: TRAF2, Q12933
T1 chain: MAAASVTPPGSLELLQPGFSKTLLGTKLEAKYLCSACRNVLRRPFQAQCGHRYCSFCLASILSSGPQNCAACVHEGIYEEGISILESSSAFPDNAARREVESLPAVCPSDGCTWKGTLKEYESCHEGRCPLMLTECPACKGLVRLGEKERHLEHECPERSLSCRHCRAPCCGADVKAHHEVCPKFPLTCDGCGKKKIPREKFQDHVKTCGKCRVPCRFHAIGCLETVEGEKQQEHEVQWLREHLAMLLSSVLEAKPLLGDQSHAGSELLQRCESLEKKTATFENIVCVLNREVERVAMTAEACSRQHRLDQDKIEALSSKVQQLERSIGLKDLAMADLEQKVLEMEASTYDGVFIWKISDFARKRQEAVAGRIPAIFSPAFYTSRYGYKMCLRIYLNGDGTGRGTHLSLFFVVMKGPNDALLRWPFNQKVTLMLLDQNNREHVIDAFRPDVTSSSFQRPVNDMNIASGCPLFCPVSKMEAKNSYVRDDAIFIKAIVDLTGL

B1: traf2_out_6_166_2466 (protein)
chain: EEELLARIREIARRLGEYEPEVVIEAAERVAAELDDERALLARQLASGVRQGQKAGLPTETVVTALADGFIALGVPVEDILELLERVLRQAEELAREREA
B2: traf2_out_15_48_1360 (protein)
chain: STEALRATAREVADLIDATLDEVAEELRALLPQAPPSVRPLLERAIEVASRHRSINDVIALLDQAIAQADPELAARLEALRARLLETRRRASALVNETLA
B3: traf2_out_17_162_1536 (protein)
chain: SPEDERLAELQKRLEELEKKLEELEKKLKNIEKLSKEELTDLLVEASELRREARELAEELRELAEKTGSPEAEELRERAEELAEKLQRIANEIYKELEKK
B4: traf2_out_11_79_935 (protein)
chain: EEKREELLRLLEEALRLLEELIKKLEAGTISPEERAEMLDEIERLLQRAAMLALELGLSDVLVEISKAKRYVRLAYSGDLEALRKAKEHLERAIELVKKE
B5: traf2_out_11_104_639 (protein)
chain: LTREQAREFNDFAMAKEDEARAVAAELAAALEAAGETAAAARVRAALAHPGAGISTFRNLLEDLLPTLSPAAAAQARAAIARLAALQREVSAKLNELEAK
B6: traf2_out_12_50_976 (protein)
chain: GPEEEEEAENERFREEADRILAERDRVWAATGGDTAAAAAALIERAKKSKEDAKLALAVARALLSELLQRGEDTSVIAAAIDEIEKILEELEEKEEAAKK
B7: traf2_out_20_3_2217 (protein)
chain: EELKERIRRELERIRELLERARPLLPAEDYERLRRLLEEAEEALETDLTDALVKLSELRRLALRLAQEARAAGNAELAALLEEMAERANRAAGLVLKAIE
B8: traf2_out_8_144_2536 (protein)
chain: MLTRRELANRLANILVEIDELIEKADPETKKVLTEARRHVGQALNLVVFGGPREEILKELEKAAKKLKEAIKLVADDPELKAKAEAALKEVEAIIKDVKK
B9: traf2_out_13_95_1049 (protein)
chain: SAETAKKIMEVADEMEEKALKLLEEAKAKVADDPAASAVMDEALDLAEKRGISEAIHLLRQAQAADPAHKAEFDALIKELEKLRKEAGKKVAEILKEEKE
B10: traf2_out_17_162_1562 (protein)
chain: SALEKRWEELKKRLEELKKRVEELKEKLKNLENMSPEEIRDLLVEASEVKREARRLAEEAKKLKEEIGEEEAQKLIDEANEIAEEAQRIANKLYKALLEK
B11: traf2_out_20_3_2203 (protein)
chain: EELLKELEKELEEALKLLKKARELADPETAKRLEELIKRLKASRELSLDDRLVVLSEIRAEVLRLAQEARARGDEELAAVLEEAADKLQRAMNLVYKLIE
B12: traf2_out_6_3_2531 (protein)
chain: DRESLLADARKVLENMGITTAAELQRLVEAEVRAIRQLISRPDVDRADLAGARSVIALARAMVEVAAETLPDFTPEQQARLQALLAEAEELVRRREEELA
B13: traf2_out_1_15_927 (protein)
chain: SSEEVKKEAEKLVKEAKEALEEAKANPDDKELLKEKLKKLEELKRKLIDLLNKTENDKETTNHVINALLEVEAYLAKVKALAYPEKKAAYEAKAKLWEEA
B14: traf2_out_17_178_1695 (protein)
chain: SKEEIRAKISELTDELIDLTDYYGTKLLEMVKKEGVLTPEEIAKLEAALKSGSNRTFLETAKEIIPKSNASEEIKELLKEFEKKYKELSKKIAEAYKEYE
B15: traf2_out_18_117_1798 (protein)
chain: SALEKAKEEFEKEAERFEEELREAQRVATQLIEKYPKQLPQEAMDAIVRFGELKRRFQELVQEAKANPNDLEKLKKIVEELKELTEEVREVRDELKKLLA
B16: traf2_out_11_104_638 (protein)
chain: LTREQAREFNDFAMAKEDEARAIAAALAATLAAAGETAAAARVNAALAHPGAGISTFRNLLEDLKPTLSPAAAAAADAAIAELDALQKEVSKKYNELEKE
B17: traf2_out_13_95_1107 (protein)
chain: SAETAKKIMEVADRMLEEVEALLQELLEKMKAAGKLEEEVQEALHLARYRSINEAIHKLRELAEKYPEFKEEYLATIERIEALRREAGREVAKILKEEKA
B18: traf2_out_17_178_1714 (protein)
chain: TKEEARKKISEATDKMIDLAEEAAARLLEIAEREGSLSPEELAELRRARRLGSARTTRALMERAIPRSPSAEEVQALLDEFNAEYARLSKIIAEELKKYE
B19: traf2_out_5_63_2338 (protein)
chain: SEREELTALAREADRAVRAILEALKAGKREEARKLVEEVAKDPELLRTAIGIARAELKYYSLQPEKKEEEKIAKELLKLLEEAAKRREEEERREREEALA
B20: traf2_out_1_27_1016 (protein)
chain: SDEELTELIKKTDKEIAEVSIEEAKEVVKEALKKAYELGREDAMVLARTLIASQLDEERREAITEAAVEAFKELGFPEEEIERLRRVAESSAELIRKAKA
B21: traf2_out_20_38_2035 (protein)
chain: SEEEEEEEKLEEIIEVANEAYDEYMAWIAERKAAGKTVEEIAEEAKEEVKELLSKVGLEEEAEILIEDIDRALSSPDAERLIARTLARAVALVKQKELNK
B22: traf2_out_8_144_2537 (protein)
chain: HMSRRELANELANALVELDELAKLADPETKEVLTKARRHIGQALNLVVFGGEREEIIKELEKAIEYLKEAAKLVADDPELKKRVQKVIEKVKEILKNVKE
B23: traf2_out_6_3_2518 (protein)
chain: MEESIRRDAAKVLENMGITTAEQLLRLVKANVNAVKKLVSRKDVDRADLAGAESVLNLTRAMVEVAAETLPDLTEEQKAEMLALIEEARELVEKKRKELE
B24: traf2_out_20_3_2241 (protein)
chain: SELEKELEKAFKELEKRLKELAPLLPPEDAARLKALLEEAKEAYKKDKSDALVKLSELRRALLALAERARAAGDEETAARLEEAADLANRAMQLIYKIIE
B25: traf2_out_20_3_2167 (protein)
chain: SELEEEAKEELAAALALLREAAALADPETAARLEALIAELRASESLSPSDRLVVVSRVRREVLELAQEARAAGRAELAALLEAAADELNELMQLLYQIIE
B26: traf2_out_20_3_2182 (protein)
chain: EELKKELEKELEKAEKLIKEAAKLADPETAKKLKELEKRLKESRKLSLEDQLVELSEIRRELLELAEKAKKEGKEELAKKLEEAADAINKAMNLVYKLIE
B27: traf2_out_19_138_1960 (protein)
chain: SAYQEVMDQAADVGNALRETVAALEALRAKAASGTPEEQAAAAAFTAAALAKIDAIRDERSKAVNAVLKDPSKAEEQLAKLKALLKEAEALLKEVKARLA
B28: traf2_out_18_3_1916 (protein)
chain: SEEERKKVSEEIDKIVDEATARARAALARLEAEHPAHAARAAALRADLDAGAGPFGLLEALAELAREAGDEALAAEIEAFLKKKRAEFQKLVDKYEELLK
B29: traf2_out_17_162_1583 (protein)
chain: SPLEEELAELEKELEELEKELKRLEEKSKKFKEMSKEELSDLLVEASEARRRALELAERLRELRPEIGEERATELIERAEEIAERFQKLANELYKEYLKK

Biological target: T1, TRAF2, Q12933
Assay: median log2 fold change of GCK-ALFA target abundance (FLAG IP / Myc IP barcode read proportion) (log2 ratio); each designed protein is fused to an ALFA-tag nanobody in HEK293 cells to bring the named protein to FLAG-tagged glucokinase (GCK); Myc marks an untargeted standard; higher = target protein stabilised (more abundant)
Details: target protein: 3xFLAG-MCP-GCK-ALFA reporter; HEK293 landing pad (RPLP)
Summary of the method: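 An ALFA-nanobody-fused binder library was recombined into HEK293 landing-pad cells and induced with 2 μg mL^−1 doxycycline. Cells were transfected with a plasmid expressing a FLAG-tagged target and a Myc-tagged standard. After 48 h, lysates underwent anti-FLAG and anti-Myc immunoprecipitation, and circular RNA barcodes were reverse transcribed, amplified and sequenced. Target abundance is the per-binder median log2 ratio of FLAG to Myc barcode read proportions. Barcodes needed ≥10^−7 proportion in both replicates, binders ≥3 barcodes per replicate, and a 10^−6 pseudocount was added; the two replicates were pooled.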

Binder | median log2 fold change
B1 | 0.103
B2 | 0.3
B3 | 0.429
B4 | 0.483
B5 | 0.214
B6 | 0.33
B7 | 0.0974
B8 | -0.0794
B9 | 0.156
B10 | 0.177
B11 | 0.571
B12 | -0.925
B13 | 0.163
B14 | 0.202
B15 | 0.299
B16 | 0.206
B17 | -0.432
B18 | 0.0908
B19 | 0.165
B20 | 0.418
B21 | -1.16
B22 | 0.181
B23 | -0.905
B24 | 0.215
B25 | 0.342
B26 | 0.403
B27 | 0.184
B28 | 0.131
B29 | 0.152

Reference: the supplement of paper PMC12632987
